Source: article PMC4336329 (PLoS ONE, 2015)
Among all 310,000 compounds or so, about 2,200 (0.71%) showed an effect of 50% or more. Effects have a minus sign here. The list shows a part of the results.

Each molecule was assayed against human ether-à-go-go-related gene (hERG) potassium channel (human, UniProt Q12809) (assay: primary screen, population patch clamp on CHO cells stably expressing hERG).
Chain of human ether-à-go-go-related gene (hERG) potassium channel (Q12809 whole entry, looked up): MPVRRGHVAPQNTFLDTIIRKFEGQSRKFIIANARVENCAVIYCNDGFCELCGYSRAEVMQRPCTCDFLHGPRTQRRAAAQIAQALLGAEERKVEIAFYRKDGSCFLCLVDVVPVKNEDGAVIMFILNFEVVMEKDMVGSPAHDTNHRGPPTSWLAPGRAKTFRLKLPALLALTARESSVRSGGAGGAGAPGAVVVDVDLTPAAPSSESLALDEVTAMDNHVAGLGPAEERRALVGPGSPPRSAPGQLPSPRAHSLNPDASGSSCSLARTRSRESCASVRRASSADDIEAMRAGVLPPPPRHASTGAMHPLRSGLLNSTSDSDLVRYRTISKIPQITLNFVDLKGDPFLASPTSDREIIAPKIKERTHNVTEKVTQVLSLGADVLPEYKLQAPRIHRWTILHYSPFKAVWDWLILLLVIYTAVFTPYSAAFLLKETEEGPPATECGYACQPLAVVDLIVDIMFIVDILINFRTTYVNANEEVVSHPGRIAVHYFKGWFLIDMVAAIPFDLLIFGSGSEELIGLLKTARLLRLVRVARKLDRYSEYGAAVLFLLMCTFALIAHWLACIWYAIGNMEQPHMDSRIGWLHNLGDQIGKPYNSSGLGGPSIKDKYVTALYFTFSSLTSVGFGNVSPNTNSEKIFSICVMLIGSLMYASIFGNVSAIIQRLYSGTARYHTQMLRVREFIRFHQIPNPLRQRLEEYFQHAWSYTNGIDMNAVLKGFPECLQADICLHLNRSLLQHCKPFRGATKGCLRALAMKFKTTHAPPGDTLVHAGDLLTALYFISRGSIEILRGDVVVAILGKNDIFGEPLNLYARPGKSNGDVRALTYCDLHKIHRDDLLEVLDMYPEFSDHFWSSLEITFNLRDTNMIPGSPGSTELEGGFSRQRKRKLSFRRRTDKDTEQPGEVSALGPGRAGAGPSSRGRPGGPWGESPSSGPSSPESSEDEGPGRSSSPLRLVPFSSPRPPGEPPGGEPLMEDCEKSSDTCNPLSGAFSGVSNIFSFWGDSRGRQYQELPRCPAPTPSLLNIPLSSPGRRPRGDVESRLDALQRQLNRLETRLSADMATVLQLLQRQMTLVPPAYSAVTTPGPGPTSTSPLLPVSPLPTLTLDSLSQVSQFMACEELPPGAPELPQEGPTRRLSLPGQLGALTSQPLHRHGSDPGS

Compound | hERG current change (%, negative = inhibition) at 1uM
Cc1cccc(N2CCN(S(=O)(=O)c3c(C(=O)N4CCCCC4)c(C)n(C)c3C)CC2)c1C | 9.29%
CC(=O)NC(CCS(C)(=O)=O)C(=O)Nc1ccccc1 (centres unmarked) | 19.2%
COC(=O)Cc1c(C)nc2nc(NCc3c(F)cccc3Cl)[nH]n2c1=O | -3.86%
O=S(=O)(NC1CCCC1)c1ccc(S(=O)(=O)N2CCCN(Cc3ccccc3)C2)cc1 | -2.08%
CCc1nc(SCc2ccccc2)n[nH]1 | 12.5%
COc1ccc(O)c(C(=O)c2cnc3onc(C(C)C)c3c2)c1 | 25.3%
COc1ccc(CCNC(=O)c2noc3c2CCCC3)cc1OC | 2.66%
CCOc1ccc(C2C=C(c3ccc(C)cc3)Nc3ncnn32)cc1 (centres unmarked) | 18.2%
CN(C)c1ccc(-c2nn3c(-c4cccnc4)nnc3s2)cc1 | 6.71%
CCCC(C)C(=O)OCC(=O)NCc1ccc(OC)c(OC)c1 (centres unmarked) | 14.7%
CC1(C)CC(=O)C2=C(C1)N(CCN1CCOCC1)C1=C(C(=O)CC(C)(C)C1)C2c1ccc(Cl)c([N+](=O)[O-])c1 | 11.4%
Cc1nn(CC(=O)Nc2nccs2)c(C)c1[N+](=O)[O-] | 2.98%
CCOC(=O)Cc1c(C)c2ccc(N(CC)CC)cc2oc1=O | 14%
COCC(C)NC(=O)c1cc2c(ccc3ccccc32)oc1=O (centres unmarked) | 15.5%
CC1CCCN(C(=O)CSc2nc3ccccc3o2)C1 (centres unmarked) | 4.23%
CC1CCCCN1S(=O)(=O)c1ccc(S(=O)(=O)N2CCN(c3ccc(F)cc3)CC2)cc1 (centres unmarked) | -0.313%
CC(Oc1ccccc1)C(=O)Nc1cccc(F)c1 (centres unmarked) | 8.48%
Cc1cc2ncc(-c3cccc(Cl)c3)cn2n1 | 11%
O=C(N/N=C/c1ccccc1Cl)c1ccc(F)cc1 | 15.6%
Cc1cc(Br)ccc1NC(=O)C1CSC2(C)CCC(=O)N12 (centres unmarked) | -4.61%
CCN(CC)c1ccc([N+](=O)[O-])cc1C(=O)O | 13.2%
Cc1ccc(C(=O)NNC(=O)CSc2nnc(CNc3ccc(F)cc3)n2C)cc1 | 19.9%

Compound | hERG current change (%, negative = inhibition) at 1uM
NC(=O)c1cc2ccccc2o/c1=N\NC(=O)c1ccncc1 | -4.09%
O=C(CNC(c1ccccc1)c1ccccc1)Nc1c(F)cccc1F | 3.22%
O=S1(=O)N(Cc2ccccc2F)CCCN1Cc1c(F)cccc1Cl | 11.2%
O=C(CSC1=NS(=O)(=O)c2cc(F)ccc2N1)Nc1cccc(F)c1 | 2.39%
Cc1cccc(C(=O)Oc2ccc(/C=N/O)cc2)c1 | 3.57%
CC1=C(C(=O)N(C)C)C(c2ccc(Cl)c(Cl)c2)NC(=O)N1 (centres unmarked) | 4.14%
COC(=O)C(C)Sc1n[nH]c(=S)s1 (centres unmarked) | 15%
COCCN1C(=O)/C(=C/c2c(OC)cc(OC)cc2OC)C(=O)N(c2ccccc2)C1=O | 8.55%
Br.c1cn2cc(CN3CCOCC3)nc2s1 | 4.97%
CN(Cc1c(C(=O)N/N=C/c2ccccc2F)nnn1-c1nonc1N)c1ccccc1 | 30.3%
COC(=O)C1=C(c2ccc(F)cc2OCc2ccccc2)C[C@@H]2CC[C@H]1N2C(=O)NC1CC1 | 13%
Cc1ccc(OCCNC(=O)CCNS(=O)(=O)c2ccc(Br)cc2)cc1 | 18%
COc1cc(/C=N/n2cc(-c3ccccc3)[nH]c2=S)cc(OC)c1O | 2.18%
O=C(O)c1cnn(-c2nc(-c3cccc([N+](=O)[O-])c3)cs2)c1C(F)(F)F | 19.7%
CN(C)c1cc[n+](CC(=O)Nc2ccc([N+](=O)[O-])cc2Cl)cc1.[Cl-] | 12.9%
CCn1nc([N+](=O)[O-])c(C(C#N)c2nc3cc(C(F)(F)F)ccc3s2)c(Cl)c1=O (centres unmarked) | 18%
O=C1NN=C(c2ccccc2)CC1c1ccc(Cl)cc1Cl (centres unmarked) | 18.7%
O=[N+]([O-])c1ccc(-c2nc(C(Cl)Cl)c3ccccc3n2)cc1 | 16.1%
CC(=O)c1ccc(C(=O)N2CCCC(Nc3ccccc3)C2)s1 (centres unmarked) | 9.65%
CC(=O)Nc1ccc(S(=O)(=O)N/N=C/c2cccnc2)cc1 | -1.17%
CC(C)(C)[C@@H]1C=C(C(=O)NCc2ccccc2)O[C@H](OCc2ccc(CO)cc2)C1 | 11.5%
CCOc1ccc(NS(=O)(=O)c2ccc3[nH]cc(C(=O)NC(C)CC)c(=O)c3c2)cc1 (centres unmarked) | 5.91%

Compound | hERG current change (%, negative = inhibition) at 1uM
O=C(O)C(Cc1ccccc1)NC(=O)C(Cc1ccccc1)NC(=O)C12CC3CC(CC(C3)C1)C2 (centres unmarked) | 19.5%
CNS(=O)(=O)c1cccc(C(=O)OCC(=O)N2c3ccccc3CC2C)c1 (centres unmarked) | 9.07%
CC(=O)N1CCc2cc(Br)cc(S(=O)(=O)NCC3CCCO3)c21 (centres unmarked) | 3.6%
COc1ccc(-n2ncc3c2CC(C)(C)CC3NC(=O)CCN2CCCC2=O)cc1 (centres unmarked) | 7.82%
O=C(CCCCCn1c(=O)[nH]c2ccsc2c1=O)NCc1ccc2c(c1)OCO2 | 6.23%
CC(=O)NC(Cc1ccc(C)cc1)C(=O)NC1CCN(S(=O)(=O)c2ccccc2)CC1 (centres unmarked) | -0.623%
Cn1c(=O)c2[nH]c(NCCCN3CCOCC3)nc2n(C)c1=O | -2.23%
Cc1cccc(C(=O)NC2CC(C)(C)NC(C)(C)C2)c1 | 9.14%
O=Cc1cn(Cc2cccc(F)c2)c2ccccc12 | 8.79%
COc1ccc(Cn2nc(-c3ccccc3)c(N3CCCCC3)cc2=O)cc1 | -9.28%
CN(CC(=O)Nc1cccc(F)c1)C(=O)c1ccc(N2C(=O)c3ccccc3C2=O)cc1 | 10.7%
O=C(CSCc1ccc(Cl)cc1)Nc1ccc(O)cc1C(=O)O | 11.8%
Cc1ccc(-c2nn3c(C)nnc3c3ccccc23)cc1S(=O)(=O)N(C)CCO | 6.4%
COc1cccc(-n2c(N)c(C#N)c3ccc([N+](=O)[O-])cc3c2=O)c1 | 3.67%
CC(=O)N1CCSc2ccc(S(=O)(=O)NCCc3cccc(C)c3)cc21 | -2.36%
COc1ccc(OC)c(C2=NS(=O)(=O)N(C)C(C(=O)Nc3ccc(C(C)=O)cc3)=C2)c1 | 14.1%
Cc1ccc(S(=O)(=O)Nc2cccc(CP(=O)(c3ccccc3)c3ccccc3)c2)cc1 | 14%
N/C(=N\OC(=O)COc1cc(Cl)c(Cl)cc1Cl)c1ccncc1 | 11.9%
NC(=O)c1ccccc1NC(=O)NC1CCCCC1 | 2.35%
CC(=O)CCC(=O)OCC(=O)c1ccc(C(F)(F)F)cc1 | 11.6%
Cc1[nH]c2ccccc2c1C(=O)COC(=O)c1ccc([N+](=O)[O-])s1 | 11.3%
CCC(C)NC(=O)C(NS(=O)(=O)c1ccc2c(c1)c(=O)n(C)c(=O)n2C)c1ccccc1 (centres unmarked) | 7.18%

Compound | hERG current change (%, negative = inhibition) at 1uM
O=C(NCCCN1CCCC1=O)c1cccc(NS(=O)(=O)c2ccccc2)c1 | 13.4%
COc1ccccc1N(C)S(=O)(=O)c1ccc(C(=O)OCC(=O)NCCC2=CCCCC2)cc1 | 5.44%
CCc1ccc(NC(=O)CCS(=O)(=O)c2ccc(Cl)cc2)cc1 | 18%
Cc1nc(N2N=C3/C(=C/c4ccc(F)cc4)CCCC3C2c2ccc(F)cc2)sc1C(=O)N(C)C (centres unmarked) | 0.185%
O=C(C1=NN(c2ccccc2)C(=O)CC1)N1CCc2ccccc2C1 | 17.9%
Oc1ccc(-c2nc3ccccn3c2NCc2ccco2)cc1 | 4.71%
NC(=O)C1CCN(C(=O)c2ccc(NC3=NC4CS(=O)(=O)CC4S3)cc2)CC1 (centres unmarked) | 12%
O=C(CCCCCNc1nc(=S)[nH]c2ccccc12)NCCc1ccc(Cl)cc1 | 5.03%
N#CCCn1cc(C(=O)Nc2ccccc2Cl)c(-c2ccc([N+](=O)[O-])cc2)n1 | -44%
Cc1c(NC(=O)COC(=O)Cc2ccc(F)cc2)c(=O)n(-c2ccccc2)n1C | 4.06%
CCCCn1c(=O)c(C(=O)NCc2ccncc2)c(O)c2ccccc21 | -0.804%
COc1ccc(CNC(=O)C(C)N(Cc2ccccc2OC)C(=O)c2snc(C(N)=O)c2N)cc1 (centres unmarked) | 12.1%
Brc1ccc(OCCOc2cccc3cccnc23)cc1 | 9.9%
CN1CCN(NC(=O)COc2cccc(C(F)(F)F)c2)CC1 | 7.45%
Cc1cc(C)n2nc(C(=O)OCC(=O)Nc3ccc(C)c(S(=O)(=O)N(C)C)c3)nc2n1 | 9.98%
O=S(=O)(c1ccc(Br)cc1)N1CCN(c2ccc3nnc(-c4ccccc4)n3n2)CC1 | -7.59%
O=C(CSc1nnc(-c2ccco2)n1CC1CCCO1)c1ccccc1 (centres unmarked) | 4.85%
Cc1ccsc1/C=N/N1CCN(c2ccccn2)CC1 | 5.75%
Cn1c(CC(=O)Nc2ccccc2)cc2ccccc21 | 16%
COc1ccc(-c2nn(Cc3ccccc3)cc2C(=O)N2CCN(c3ncccn3)CC2)cc1 | 12.1%
